Laboratory results reported in PubChem BioAssay AID485294 (National Center for Advancing Translational Sciences (NCATS), 2010).
Among all 370,000 compounds or so, about 150 (0.041%) were called active. The inconclusive results got no clear call from the source; some entries with a clear call stand among them for comparison. Calls follow the shape of the dose curve; as a rule, active = well fitted inhibition curve with a large enough effect; inconclusive = small, poorly fitted or top-dose-only effect; inactive = flat fitted curve, though single readings scatter. No potency is given beside an inconclusive call; the fits are too rough.

Each molecule was assayed against Beta-lactamase (Escherichia coli (strain K12)) (UniProt P00811) (assay: qHTS Inhibitors of AmpC Beta-Lactamase (assay with detergent)). Settings: AmpC hydrolysis of nitrocefin, absorbance 480 nm, 0.01% Triton; series mostly up to 114 µM.
Chain of UniProt P00811 (P00811 whole entry, looked up): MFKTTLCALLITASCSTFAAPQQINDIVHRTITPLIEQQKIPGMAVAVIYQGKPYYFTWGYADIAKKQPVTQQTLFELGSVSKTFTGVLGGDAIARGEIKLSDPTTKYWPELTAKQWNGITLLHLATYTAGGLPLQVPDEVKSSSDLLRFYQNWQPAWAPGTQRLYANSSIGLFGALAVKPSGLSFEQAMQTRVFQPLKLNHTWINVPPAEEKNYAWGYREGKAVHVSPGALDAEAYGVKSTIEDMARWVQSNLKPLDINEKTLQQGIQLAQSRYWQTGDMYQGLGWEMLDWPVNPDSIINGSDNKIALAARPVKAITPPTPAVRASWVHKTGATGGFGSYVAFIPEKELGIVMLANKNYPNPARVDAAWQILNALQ
Procedure, shortened: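 20 mM phosphate pH 7.0 + 0.01% (detergent screen) or 0.0001% Triton X-100; 5.3 nM AmpC reagent; cpd preinc 15 min RT; nitrocefin (800 uM stock) to start; A480 q20 s × 4 min; Activity was normalised to no-enzyme and no-compound control wells.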
Also: nearly all actives have a fitted effect of over 25% in size.
Potency is read from the fitted curve at half-maximal effect; tags tell the direction and shape of the fitted curve.

Row | SMILES | Potency
1 | CCCn1nnc(NC(=O)c2ccccc2Cl)n1 | inactive
2 | CCCC1C2CN(C(C)C)CC=C2C(C#N)=C(N)C1(C#N)C#N (stereo unspecified) | inconclusive [inhibitor, full curve, poor fit]
3 | COc1ccc(OC)c(CCNC(=O)CCc2nnc3ccc(N4CCCCC4)nn23)c1 | inconclusive [inhibitor, partial curve, poor fit]
4 | CCOC(=O)c1c(/N=C/c2cc(C)ccc2O)sc2c1CCC2 | inconclusive [inhibitor, single point]
5 | COc1ccc(N2C(=O)NC(=O)/C(=C\c3cn(CC(=O)N4CCOCC4)c4ccccc34)C2=O)c(OC)c1 | inconclusive [inhibitor, full curve, poor fit]
6 | Cc1ccc(C(=O)CCC(=O)OC(C)C(=O)NC2CCCCC2C)cc1 (stereo unspecified) | inactive
7 | CC1=CC(=O)c2c(O)ccc(O)c2C1=O | inconclusive [inhibitor, partial curve]
8 | COc1ccc(-n2nc(C(=O)NCC(=O)N3CCN(Cc4ccccc4)CC3)c3ccccc3c2=O)cc1OC | inactive
9 | CCOc1ccccc1NC(=O)N1C2CCCC1CC(NC(=O)C1CC1)C2 (stereo unspecified) | inconclusive [inhibitor, partial curve, poor fit]
10 | O=C(CC(c1cccs1)N1Cc2ccccc2C1=O)Nc1ccccc1 (stereo unspecified) | inactive
11 | COc1cc(NC(=O)Cn2ccsc2=N)c(C)cc1[N+](=O)[O-] | inactive
12 | CC(NS(=O)(=O)c1ccccc1)C(N)=O (stereo unspecified) | inconclusive [inhibitor, single point]
13 | COC(=O)c1c(C)[nH]c(O)c1C=Nc1ccc(C#N)cc1 | inactive
14 | CC1(C)Cc2c(c(N3CCOCC3)nc3snc(Br)c23)CO1 | inconclusive [inhibitor, full curve, poor fit]
15 | CC(C)n1ncc2c(C(=O)Nc3cccc(C#N)c3)cc(C3CC3)nc21 | inactive
16 | COc1ccc(NC(=O)CN(C)CCOc2ccc(Cl)cc2)cc1OC | inconclusive [inhibitor, single point]
17 | CCCCCCCCCC[n+]1cccc2c3ccccc3ccc21 | inactive
18 | O=C(Cn1c2[n+](c3ccc(C(F)(F)F)cc31)CCCCC2)c1cccc([N+](=O)[O-])c1 | inactive
19 | NC(=O)c1c[nH]c2ccccc12 | inconclusive [inhibitor, partial curve]
20 | COc1ccc(S(=O)(=O)N2CCN(C(=O)CCC3CCCC3)CC2)cc1 | inconclusive [inhibitor, single point]
21 | CC(C)C[C@@H]1NC(=O)[C@H](Cc2ccccc2)N(C)C(=O)[C@H](C)NC(=O)c2ccccc2NC(=O)[C@H](Cc2ccc(O)cc2)N(C)C1=O | inactive
22 | COc1ccc(C(=O)NC(=S)NNC(=O)c2ccco2)cc1 | inactive
23 | CCCCn1c(N)c(N(CCOC)C(=O)CN(C)S(=O)(=O)c2ccc(F)cc2)c(=O)[nH]c1=O | inconclusive [inhibitor, full curve, poor fit]
24 | c1ccc(CSc2nc3ncccn3n2)cc1 | inconclusive [inhibitor, single point]

Row | SMILES | Potency
25 | CCCc1ccc2oc(C(=O)N(C)Cc3ccn[nH]3)c(C)c2c1 | inconclusive [inhibitor, full curve, poor fit]
26 | Cc1nn(Cc2ccccc2Cl)c(C)c1NC(=O)CSc1n[nH]c(C)c1[N+](=O)[O-] | inconclusive [inhibitor, full curve]
27 | Cc1nc(N)c(Cc2ccc(Cl)cc2Cl)c(N)n1 | inconclusive [inhibitor, partial curve, poor fit]
28 | O=C(O)Cc1ccc(C(=O)c2ccc(F)cc2)s1 | inactive
29 | COc1ccc(C2NCc3ccc4c(c3-n3cccc32)OCO4)cc1O (stereo unspecified) | inconclusive [inhibitor, full curve]
30 | COc1cccc(C2CN(c3ccc(F)cc3F)N=C2c2cccs2)c1OC (stereo unspecified) | inconclusive [inhibitor, full curve, poor fit]
31 | O=C(CSc1ccccc1C(=O)O)NC1CCCCCC1 | inactive
32 | Cn1c(=O)c2c(nc(CN3CCN(c4ccc(F)cc4)CC3)n2Cc2ccccc2F)n(C)c1=O | inconclusive [inhibitor, partial curve, poor fit]
33 | Cc1cccc(NC(=S)NNC(=O)c2csc(C(C)C)c2)c1 | inactive
34 | c1ccc(CSc2nnc(-c3ccco3)n2Cc2ccccc2)cc1 | inconclusive [inhibitor, full curve, poor fit]
35 | CCCn1c(N)cc(=O)n(CCC)c1=O | inconclusive [inhibitor, full curve]
36 | CCc1ccc(Nc2nc(N3CCOCC3)nc(N3CCOCC3)n2)cc1 | inactive
37 | COc1ccccc1Oc1ccc2c(c1)C(=O)N(c1ccc(O)cc1)C2=O | inconclusive [inhibitor, full curve, poor fit]
38 | CCOc1ncccc1C(=O)OCc1ccc(C#N)cc1 | inconclusive [inhibitor, partial curve]
39 | O=C1CC(c2ccc(Cl)cc2)CC(=O)C1CS(=O)(=O)c1ccccc1 (stereo unspecified) | inactive
40 | CC1(C)SC2c3ccccc3C(=O)N2[C@@H]1C(=O)NC1CC1 (stereo partly specified) | inactive
41 | Cn1c(SCC(=O)Nc2ccc(NC(=O)c3ccccc3F)cc2)nnc1-c1ccncc1 | inconclusive [inhibitor, partial curve, poor fit]
42 | CC(=O)Nc1cc(C(=O)NCCN2CCN(Cc3ccccc3)CC2)ccc1Sc1ccc(C)cc1 | inactive
43 | CCOc1ccc(NC(=O)C2CCN(C(=O)N3CCOc4ccccc43)CC2)cc1 | inconclusive [inhibitor, full curve]
44 | O=C(Nc1ccc(NC(=S)NC(=O)c2cccs2)cc1)c1ccco1 | inactive
45 | CCOc1ccc(CC(C(N)=O)C(N)=O)cc1CN(C)C | inconclusive [inhibitor, partial curve]
46 | CCc1nnc(SCC(=O)NC2CC2)n1CC | inconclusive [inhibitor, full curve, poor fit]
47 | COc1ccc(Br)cc1C(=O)Nc1ccc(O)cc1 | inconclusive [inhibitor, single point]
48 | Cc1ccccc1C(=O)NCC(=O)OCC(=O)NC(C)C1CC2CCC1C2 (stereo unspecified) | inconclusive [inhibitor, full curve, poor fit]

Row | SMILES | Potency
49 | CCn1cc(/C=C(\NC(=O)c2ccccc2OC)C(=O)N2CCN(C)CC2)c2ccccc21 | inconclusive [inhibitor, full curve, poor fit]
50 | Cc1cc2sc(C(=O)O)c(C)c2s1 | inconclusive [inhibitor, partial curve]
51 | C/C(=N/NC(=O)CNC(=O)C1COc2ccccc2O1)c1ccc([N+](=O)[O-])cc1 (stereo unspecified) | inconclusive [inhibitor, full curve, poor fit]
52 | O=C1CCCN1c1ccc(S(=O)(=O)NCCc2ccc(Cl)cc2)cc1 | inactive
53 | CC1=C(C(=O)OCc2ccccc2)C(c2cccc(Br)c2)NC(=O)N1 (stereo unspecified) | inconclusive [inhibitor, partial curve, poor fit]
54 | CCOc1ccc(-c2nnc3ccc(SCC(=O)Nc4nc5ccccc5s4)nn23)cc1 | inconclusive [inhibitor, full curve, poor fit]
55 | COc1cccc(-n2c(SCC(=O)Nc3sc4c(c3C(N)=O)CCC4)nc3ccccc3c2=O)c1 | inconclusive [inhibitor, partial curve, poor fit]
56 | CC1(C)OC(=O)C(=CNc2ccccn2)C(=O)O1 | inactive
57 | C(=N/Nc1nccs1)/c1cccnc1 | inactive
58 | COc1ccc(S(=O)(=O)N2CCC(c3nnc(-c4ccccc4C)o3)CC2)c(OC)c1 | inactive
59 | CC(C)(C)n1cnc2cc(NC(=O)c3ccccc3)ccc21 | inactive
60 | CN(C)c1nnc(-c2ccc(Cl)cc2)o1 | inconclusive [inhibitor, full curve, poor fit]
61 | COc1ccc(CCNS(=O)(=O)c2ccc(OC)c(OC)c2)cc1OC | inconclusive [inhibitor, full curve, poor fit]
62 | COc1cccc(-n2cc(C(=O)Oc3ccc(F)cc3)c3ccccc3c2=O)c1 | inactive
63 | CC(C)=CC1C(C(=O)Nc2ccc(Br)cn2)C1(C)C (stereo unspecified) | inconclusive [inhibitor, single point]
64 | Cc1ccccc1C(=O)N1CCc2c([nH]c3ccccc23)C1C(F)(F)F (stereo unspecified) | inconclusive [inhibitor, single point]
65 | CN(C)/C(=N\S(=O)(=O)c1ccc(Br)cc1)c1ccccc1 | inconclusive [inhibitor, single point]
66 | O=C(NCCS(=O)(=O)NC1CCCCC1)c1ccccc1 | inconclusive [inhibitor, full curve, poor fit]
67 | COc1ccc(CCNC(=O)CCn2c(=O)c3ccccc3n(CC(=O)Nc3cccc(C)c3)c2=O)cc1OC | inactive
68 | CCCn1nnc(NC(=O)COc2cc(C)ccc2C(C)C)n1 | inconclusive [inhibitor, partial curve, poor fit]
69 | CCOC(=O)COc1c(Br)cc(C2NC(=O)NC(C)=C2C(C)=O)cc1OC (stereo unspecified) | inconclusive [inhibitor, single point]
70 | COc1ccc(/C=C/c2nc3ccccc3n2Cc2ccc(OC)c(OC)c2)cc1 | inactive
71 | Cc1ccccc1-n1c(Cc2cccs2)n[nH]c1=S | inconclusive [inhibitor, partial curve]
